{"source": "the supplement of paper PMC11417369", "note": "This is one part of the list.", "data": [{"test_system": "PfAP2-HC AP2 domain (GST-tagged)", "assay": "gcPBM binding intensity (ln(normalized median fluorescence intensity)); higher = stronger DNA binding", "in_short": "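DNA-binding domains from P. falciparum, fused to GST and produced in E. coli, were put on an Agilent 4 × 180k double-stranded probe array for 1 h in 1× PBS holding 1% milk, 0.2 mg/ml BSA, 0.5% salmon testes DNA and 0.03% Triton X-100. Probes were primer-extended, 36 bp long and drawn from intergenic genomic regions, with negative controls included. After Alexa488 anti-GST antibody detection and a 488 nm scan, binding intensity was set as the highest Masliner-normalised natural-log median intensity across replicate spots of either probe orientation.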", "values": [{"sequence": "ATATATGTGCTAAAATGTACATAGTATAATATATTT [XGTACX_site1949]", "gcPBM binding intensity (ln)": 9.79}, {"sequence": "TTTAATCATTTTAGCTTACACACAAAATTTTGTTAT [CACACA_site2938]", "gcPBM binding intensity (ln)": 9.96}, {"sequence": "ATAAAATAAAGGAAAAATATTAAGTTTTAAGAAAAT [CACACA_negctrl_site1066]", "gcPBM binding intensity (ln)": 9.64}, {"sequence": "ATATTTAAGATTTAATCACACACATATATATTATAT [CACACA_site8946]", "gcPBM binding intensity (ln)": 9.9}, {"sequence": "TTTTTTTTTTGCACGTGTACATAAAAATATATATAT [XGTACX_site3116]", "gcPBM binding intensity (ln)": 9.54}, {"sequence": "AAAATATATTCAACTTGTACATATATATATATATAT [XGTACX_site7629]", "gcPBM binding intensity (ln)": 9.7}, {"sequence": "TTTTTGTAATGACACACACACAAACAGAAAAAATAA [CACACA_site7062]", "gcPBM binding intensity (ln)": 10.2}, {"sequence": "AAAATTTATGGAAGGTGTACTGTTAATTATGTATAT [XGTACX_site6446]", "gcPBM binding intensity (ln)": 9.74}, {"sequence": "ATATTAAAGATATATACACACATATTTATAAATATA [CACACA_site7127]", "gcPBM binding intensity (ln)": 9.78}, {"sequence": "GAAGACAATTATATGTGTACATATATATACATATAT [XGTACX_site4630]", "gcPBM binding intensity (ln)": 9.76}, {"sequence": "AGTAGATATTATTATAGTACTTTTTATTTTATATTT [XGTACX_site1551]", "gcPBM binding intensity (ln)": 9.7}, {"sequence": "GGAATTCATATTAATTGTACATTTAAAGATAGATGA [XGTACX_site3279]", "gcPBM binding intensity (ln)": 9.57}, {"sequence": "ATATTTTACATATTTGCACACATATATTTATATACA [CACACA_site855]", "gcPBM binding intensity (ln)": 10.1}, {"sequence": "ATATATATATATATATGTACTTATTTATTTATTTAT [XGTACX_site4645]", "gcPBM binding intensity (ln)": 9.81}, {"sequence": "TAATATGTGGACTTTACACACTTGTTTTAAAATTCT [CACACA_site4605]", "gcPBM binding intensity (ln)": 9.78}, {"sequence": "ATATAAAAATAATAGAGTACAAAAAAAAAATGTATA [XGTACX_site7054]", "gcPBM binding intensity (ln)": 9.79}, {"sequence": "GATGATACGATTATCACACATTTATACTTTCTACAT [CACACA_site5669]", "gcPBM binding intensity (ln)": 9.85}, {"sequence": "TGTATACATTATTAAGTGCAAGTAGGGAAAAAAAAA", "gcPBM binding intensity (ln)": 9.62}, {"sequence": "TTTATTTATCTTTACGCACACACTTGCATGTACAAA [CACACA_site1118]", "gcPBM binding intensity (ln)": 10.6}, {"sequence": "TACCTACCTTTACGGAGTACACAATAATAGTTATAA [XGTACX_site6593]", "gcPBM binding intensity (ln)": 9.69}, {"sequence": "ATATGATTAATTAAGTGTACGTATTTATAATTATAA [XGTACX_site5783]", "gcPBM binding intensity (ln)": 9.51}, {"sequence": "ATTACAATTTTAATAGTGCATTTTTATATATTTCTA [GTGCAC_site9918]", "gcPBM binding intensity (ln)": 9.63}, {"sequence": "CAAGAAAAGAAACACACACACATATATATATATATA [CACACA_site3881]", "gcPBM binding intensity (ln)": 11.2}, {"sequence": "TAAACATATACACGTACATGCAACGGATTTTTTTTT [TGCATGCA_site70]", "gcPBM binding intensity (ln)": 9.67}, {"sequence": "TTTTTACTATAAGGGGAAAAAAAAAAAAATAATATA [XGTACX_negctrl_site279]", "gcPBM binding intensity (ln)": 9.25}, {"sequence": "ATATAACTTTTAAAAGCATGCAAATATTTACTCAAT [TGCATGCA_site396]", "gcPBM binding intensity (ln)": 9.62}, {"sequence": "TATATATATATATGTGCACACATAATAAAAAAAAAA [CACACA_site3830]", "gcPBM binding intensity (ln)": 10.2}, {"sequence": "TAAAGAATAATACATTCACACAATATTATAAAAATA [CACACA_site5986]", "gcPBM binding intensity (ln)": 9.67}, {"sequence": "TTGTATGAATTTATTTTTATTGATAATTAATATGTA [TGCATGCA_negctrl_site143]", "gcPBM binding intensity (ln)": 9.54}, {"sequence": "TATGATTAATTACCACAATTGACAAAAAAAAAAAAA [CACACA_negctrl_site336]", "gcPBM binding intensity (ln)": 9.44}, {"sequence": "GAAATGTCATATAATAGTACACACATGAAAATATAA [XGTACX_site6838]", "gcPBM binding intensity (ln)": 9.89}, {"sequence": "TATAAGTATTAATACACACACAAAATAATAAAAAAA [CACACA_site3481]", "gcPBM binding intensity (ln)": 10.2}, {"sequence": "AAAAATAAAGGATATACACACTAATTCTATAAATAT [CACACA_site7344]", "gcPBM binding intensity (ln)": 9.89}, {"sequence": "GTCTCGATAATGAAAAGTACAAAATAAAAATAATAA [XGTACX_site6471]", "gcPBM binding intensity (ln)": 9.61}, {"sequence": "TTGTTCTATATATATGCATGCACGTATGTTAAATTA [TGCATGCA_site659]", "gcPBM binding intensity (ln)": 9.77}, {"sequence": "TCTCATATATTGAATTGTACATATGTTAAAATATAG [XGTACX_site6764]", "gcPBM binding intensity (ln)": 9.46}, {"sequence": "TATTAATTTTTATACGCATGTGTATAGTAATATATA [TGCATGCA_site1010]", "gcPBM binding intensity (ln)": 9.62}, {"sequence": "ATACAAAAGGGGAATACACACACATATATATATATA [CACACA_site8694]", "gcPBM binding intensity (ln)": 10.3}, {"sequence": "AATAAACATAGATGTACACACATATACAGATATATA [CACACA_site5570]", "gcPBM binding intensity (ln)": 10}, {"sequence": "AAGAAAAGAACAAGAGCATGCACTTAATAAGAATAA [TGCATGCA_site818]", "gcPBM binding intensity (ln)": 9.66}, {"sequence": "TTAATATATTTTAAAAGTACATAATATTATTTTTTA [XGTACX_site3642]", "gcPBM binding intensity (ln)": 9.14}, {"sequence": "AAGAGGTTAATGAAATGTACACATATATATATATAT [XGTACX_site1861]", "gcPBM binding intensity (ln)": 9.7}, {"sequence": "TATAGTTTTGAAAACAAACACACAAAAAAAAAAAAA [CACACA_site1691]", "gcPBM binding intensity (ln)": 9.73}, {"sequence": "TTTTTTTTCTATGTGGTGCACATTATTTTTTTTTTT", "gcPBM binding intensity (ln)": 9.84}]}]}
